Source: PubChem BioAssay AID1458 (National Center for Advancing Translational Sciences (NCATS), 2008)
“And” between values parts separate entries of the source, which are not always exact repeats. Identical values can stand only once. Among all 210,000 compounds or so, about 5,900 (2.8%) were called active. The inconclusive results got no clear call from the source; some entries with a clear call stand among them for comparison. The call rests on the fitted dose curve; in most records, active means well fitted activation curve with a large enough effect; inconclusive means small, poorly fitted or top-dose-only effect; inactive means no such curve, though single readings can be large or run the other way. A potency beside an inconclusive call is a rough fit, not a confirmed value.

Test: qHTS Assay for Enhancers of SMN2 Splice Variant Expression; further: nearly all actives have a fitted effect of over 55% in size; on activity change, positive = activation: % of control where 0% means no effect
Settings: HEK293 SMN2-luciferase splicing reporter, luminescence, 30-36 h; activity change, positive = activation: at 46.1 µM (top of the series)
In short: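 qHTS luciferase splicing reporter: luminescence rises when SMN2 exon 7 is included in transfected HEK293 cells. Compound exposure lasted 30-36 h at 37C, with 4.5 mM final sodium butyrate as control, followed by a ONE-Glo read.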
Potency means the concentration at half of the fitted maximal effect; tags describe the fitted curve by direction and shape.

Structure (SMILES) | Potency | activity change, positive = activation
Cc1ccc(C(=O)COC(=O)c2cccc(NC(=O)c3ccc(Br)cc3)c2)cc1 | inconclusive: 2.51 µM [activator, full curve, poor fit] | 
CCOc1ccc(NC(=O)c2ccc(NC(=O)COC(=O)Cc3ccccc3)cc2)cc1 | active: 20 µM | 
Nc1ccc(Cl)cc1N | active: 7.08 µM | 
CCS(=O)(=O)N1Cc2ccccc2CC1C(=O)NCC12CC3CC(CC(C3)C1)C2 (stereo unspecified) | inconclusive: 4.47 µM [activator, partial curve] | 
COc1cc2ccc(=O)oc2c2ccoc12 | inconclusive: 12.6 µM [activator, single point] and inconclusive: 10 µM [activator, single point] | 
Cn1c(=O)cc(SCC(=O)N2CCC3(CC2)OCCO3)c2ccc(Cl)cc21 | active: 20 µM | 
CCCCOCC1CO1 (stereo unspecified) | inconclusive: 5.62 µM [activator, partial curve, poor fit] | 
CN(C(=O)Oc1ccc([N+](=O)[O-])cc1)c1ccccc1 | inconclusive: 3.98 µM [activator, partial curve] | 
CNC(=O)Oc1cccc2ccccc12 | inactive | 
O=C1Nc2ccccc2/C1=C/c1cnc[nH]1 | inconclusive: 31.6 µM [activator, partial curve] | 
CCOC(=O)c1sc2ccccc2c1NC(=O)c1coc2ccccc2c1=O | inconclusive: 35.5 µM [activator, single point] | 
CCn1cc(C(=O)N2CCCCC2)c2ccccc21 | inconclusive: 35.5 µM [activator, single point] | 
Clc1ccccc1Nc1ncnc(-n2cccc2)n1 | inconclusive: 14.1 µM [activator, single point] | 
Cc1cc(N=Nc2ccccc2C)ccc1N | active: 14.1 µM | 
CC1CN(C)C(C)(C)CC1(O)c1ccccc1 (stereo unspecified) | inconclusive: 3.98 µM [activator, full curve] | 
CC(C)CN1CCC2(CC1)CCN(S(C)(=O)=O)CC2 | inconclusive: 3.16 µM [activator, single point] | 
O=c1c2ccccc2nc(CN2CCOCC2)n1-c1ccccc1F | inconclusive: 4.47 µM [activator, full curve, poor fit] | 
Cc1ccc(CSc2ncccc2C(=O)O)cc1 | inconclusive: 35.5 µM [activator, partial curve, poor fit] | 
N[C@H](Cc1c[nH]c2ccccc12)P(=O)(O)O |  | inactive: 1.09% [at 9.22 µM]
ClC(Cl)=C(Cl)Cl | inactive | 
O=C(O)[C@@H]1CSC(c2cccnc2)N1 (stereo partly specified) | inactive | 
Cn1c(=O)cc(OCC(=O)N2CCN(C3CCCCC3)CC2)c2ccccc21 | inconclusive: 14.1 µM [activator, single point] | 
C[C@H](N)C(=O)N[C@@H](C)C(=O)N[C@@H](Cc1ccccc1)C(=O)CCl | inactive | 

Structure (SMILES) | Potency | activity change, positive = activation
COCCOCCn1c(CCCO)nc2ccccc21 | inconclusive: 14.1 µM [activator, single point] | 
CO/C1=C\C(C)=C\[C@@H](C)[C@@H](O)[C@H](C)C/C(C)=C/C=C/[C@H](OC)[C@H]([C@@H](C)[C@@H](O)[C@H](C)[C@H]2C[C@@H](O)[C@H](C)[C@@H](C(C)C)O2)OC1=O | inactive | 
COc1cc(C(=O)Nc2ccc(Br)cc2C(=O)c2ccccc2)cc(OC)c1OC | inactive | 
C/C(=N\OC(=O)NC(C)C)c1sc(-c2ccc(Cl)cc2)nc1C | inconclusive: 0.0224 µM [activator, full curve, poor fit] | 
O=C1NC(=S)N(Cc2ccco2)C(=O)/C1=C\c1cccs1 | inactive | 
c1ccc(CCN2CCCCCC2)nc1 |  | inactive: -9.47% [at 9.22 µM]
Cc1oc2cc3oc(=O)c(CCC(=O)N4CCCCC4)c(C)c3cc2c1C | inconclusive: 35.5 µM [activator, partial curve, poor fit] | 
Cc1nc2ccc(N3CCN(C)CC3)cc2nc1C | inconclusive: 22.4 µM [activator, single point] | 
CCCCn1c(N)c(C(=O)OCC2CCCO2)c2nc3ccccc3nc21 (stereo unspecified) | inconclusive: 10 µM [activator, partial curve, poor fit] | 
COc1ccc(N2CCN(C(=O)c3cc(=O)[nH]c4ccccc34)CC2)cc1 | inconclusive: 3.98 µM [activator, single point] | 
CN(C)C(=O)Oc1ccc(OCc2nc3ccccc3[nH]2)cc1 | active: 7.08 µM | 
CNCCc1c(C)n[nH]c1C | inactive | 
CCOc1cc(/C=C2/NC(=O)N(CC(=O)Nc3cccc(C)c3)C2=O)ccc1O | inconclusive: 11.2 µM [activator, partial curve] | 
CC1O[C@@H](OC2CC[C@@]3(C=O)C4CC[C@]5(C)C(C6=CC(=O)OC6)CC[C@@]5(O)C4CC[C@]3(O)C2)C(O)C(O)C1O (stereo partly specified) | inactive | 
Cc1cc(C)cc(OP(=O)(Oc2cc(C)cc(C)c2)Oc2cc(C)cc(C)c2)c1 | inconclusive: 0.0001 µM [activator] | 
Cc1ccc(CC(=O)N2CCN(Cc3ccccc3)CC2)cc1 | inconclusive: 5.62 µM [activator, single point] | 
Cc1cccc(CNCCc2ccccc2)n1 | inconclusive: 8.91 µM [activator, partial curve] | 
COC(=O)C(O)(c1ccc(N=Cc2ccccc2O)c(C)c1)C(F)(F)F (stereo unspecified) | inconclusive: 0.01 µM [activator, full curve, poor fit] | 
N[C@@H](Cc1c[nH]c2cc([N+](=O)[O-])ccc12)C(=O)O |  | inactive: -3.5% [at 9.22 µM]
COc1ccc(C(=O)Nc2ccc(-c3nc4ccccc4s3)cc2C)cc1Cl | inconclusive: 0.447 µM [activator, full curve, poor fit] | 
Cc1ccc2c(c1N)C(=O)c1ccccc1C2=O | inconclusive: 12.6 µM [activator, partial curve] | 
CCOc1ccc(-c2nc3ccc(-c4nc5ccc(N6CCN(C)CC6)cc5[nH]4)cc3[nH]2)cc1 | active: 3.98 µM | 
CN(C)C(=O)Oc1cccc(-c2cn3cc(Cl)ccc3n2)c1 | active: 11.2 µM | 
